# Data: the supplement of paper PMC3334620
# The full ranking holds about 33,000 sequences; the median of “E-score (-0.5 to 0.5)” is about -0.012, and the highest 2% start at about 0.29. Some of the results follow.
# Molecular target: T1, Ybr033w (UniProt P38073)
# T1 sequence: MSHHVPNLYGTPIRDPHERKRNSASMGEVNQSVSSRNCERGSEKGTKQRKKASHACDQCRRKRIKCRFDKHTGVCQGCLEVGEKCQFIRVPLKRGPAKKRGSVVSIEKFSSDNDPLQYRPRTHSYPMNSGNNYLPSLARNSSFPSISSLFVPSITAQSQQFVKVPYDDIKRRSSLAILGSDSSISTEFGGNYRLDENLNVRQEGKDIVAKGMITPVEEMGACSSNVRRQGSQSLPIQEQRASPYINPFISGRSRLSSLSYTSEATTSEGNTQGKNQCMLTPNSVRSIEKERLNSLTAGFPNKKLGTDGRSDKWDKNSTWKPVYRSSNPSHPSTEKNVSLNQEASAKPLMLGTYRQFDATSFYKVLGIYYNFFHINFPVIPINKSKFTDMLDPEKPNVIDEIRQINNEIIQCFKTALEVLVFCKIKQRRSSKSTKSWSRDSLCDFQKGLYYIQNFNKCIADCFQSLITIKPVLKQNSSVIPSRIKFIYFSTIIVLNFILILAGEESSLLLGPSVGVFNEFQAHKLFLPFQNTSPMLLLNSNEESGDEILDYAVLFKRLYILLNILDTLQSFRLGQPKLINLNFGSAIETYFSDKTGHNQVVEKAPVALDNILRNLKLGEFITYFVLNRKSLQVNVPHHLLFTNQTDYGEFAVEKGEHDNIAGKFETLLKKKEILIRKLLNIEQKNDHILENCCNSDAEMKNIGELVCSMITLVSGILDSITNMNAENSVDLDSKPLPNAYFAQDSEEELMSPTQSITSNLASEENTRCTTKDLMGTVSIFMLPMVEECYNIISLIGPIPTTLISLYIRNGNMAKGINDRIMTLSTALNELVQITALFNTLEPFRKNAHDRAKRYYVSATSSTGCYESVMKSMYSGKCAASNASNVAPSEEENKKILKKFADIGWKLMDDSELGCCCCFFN
# Assay: PBM E-score (8-mer binding enrichment) (E-score (-0.5 to 0.5)); higher = stronger / more preferred TF binding; most listed sequences are background and not binding sites
# Conditions: protein concentration: 200 nM; construct: GST-full length
# In short: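 Yeast transcription factors, full-length or as DNA-binding domains, were expressed with a GST tag using PURExpress in vitro transcription/translation. At about 100-200 nM they were applied to universal all-10-mer Agilent arrays, double-stranded by primer extension on fresh or once-stripped slides. Fluorescent anti-GST detected bound protein, and masliner normalised the scans. E-scores for ungapped eight-base words, pooled with reverse complements, came from the Universal PBM Analysis Suite.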
row,Sequence,PBM E-score
1,GAAGAAAC,0.0906
2,CTAATGTA,0.127
3,ACAGCTAC,-0.0634
4,AAACTAAA,0.205
5,TAACCACA,0.0948
6,GTAGGTAA,0.19
7,ATAACGCA,0.0602
8,CCGGAAAG,-0.0245
9,CATCGCTA,-0.00495
10,TGTAAACA,0.181
11,ATGATGGA,0.0661
12,ATCGATCG,0.0389
13,AATAGCTC,-0.0681
14,CGACACGC,-0.0489
15,GCCCCTCA,-0.405
16,GGTCATAC,-0.208
17,AACGTGAA,0.018
18,CTTATGGA,-0.0514
19,ATCAGCGA,0.0254
20,CTTACTGC,-0.0255
21,GTTATCAA,0.144
22,CATACCCC,-0.193
23,ACCGCGAA,-0.0164
24,GCGACGTA,0.0221
25,CCAATAAC,0.132

row,Sequence,PBM E-score
1,ACGGAACA,0.298
2,CAAGCTTC,-0.0203
3,ACCGGCTG,-0.197
4,AGTTCTGC,-0.138
5,AAACCTCC,-0.0391
6,ACTAATAA,0.276
7,CGCGTACG,0.00707
8,ATGGGCTC,-0.25
9,ACTCCGAT,0.074
10,CGATCTAG,-0.184
11,AGACCTTG,-0.0565
12,CGTGAGTC,-0.181
13,CGCCCATC,-0.166
14,GCTACGGA,-0.0825
15,CAACACGC,-0.0833
16,AGACTTCG,-0.198
17,ACCCCCAA,-0.22
18,ACGCCTAA,-0.0703
19,AAAGCGCG,-0.0935
20,AAGTCTGC,-0.166
21,GCAATATA,0.123
22,ATTTCCGA,0.247
23,TGTTTCAA,0.216
24,CTAGACCC,-0.194
25,AACAAAGA,0.174

row,Sequence,PBM E-score
1,AAACAGCA,0.0447
2,CTGTGCGA,-0.0596
3,CTGGAGTA,0.0746
4,CAGGCTGG,-0.177
5,CTAATCCC,-0.0661
6,AAGCACAC,0.0146
7,CTATCGGA,0.0825
8,ATCCCGGC,-0.0706
9,GTACAGTA,0.021
10,AACAGTGA,-0.0153
11,TTACGCAA,0.257
12,CAGAAAGG,-0.0904
13,CCCCCGCA,-0.212
14,AGTCACAG,0.0385
15,CTGTGTTC,0.0163
16,AACGCATA,0.0627
17,ACCGACGG,-0.139
18,CGATGGCA,-0.0591
19,CGCAATAG,0.0121
20,TCCGAAGA,0.0524
21,CAATACCC,-0.0197
22,CGGAGAAC,-0.02
23,CAGGGAAG,-0.194
24,TACGCTCA,0.0311
25,GCGTCCAA,-0.0752

row,Sequence,PBM E-score
1,GTGATAAA,0.102
2,CTTCAATA,0.113
3,TAGCACAA,0.0785
4,TGGCGAAA,0.0143
5,CGTCTCAG,-0.138
6,AAAGATCG,-0.0193
7,ACCTCTCC,-0.159
8,CTTAATAC,0.136
9,GAAGGGAA,-0.074
10,AACTCGAG,0.0409
11,GAATTTGA,0.214
12,GAGAATCC,0.0118
13,TAAGACTA,-0.0167
14,CAGATTAC,0.0918
15,ACGATGTA,0.141
16,CAGGGTCC,-0.236
17,CGATGATA,0.0954
18,CATAGCTC,-0.153
19,CGAGCGTA,-0.0477
20,ACAGTGGA,0.0657
21,TAGACGAA,0.0257
22,AGAGTGCA,-0.114
23,GAGTGTCA,-0.0498
24,AAGAACCC,-0.105
25,CCCAATAC,0.0528

row,Sequence,PBM E-score
1,ACCATAAA,0.229
2,ATTTACCC,0.156
3,GGAGTGTA,-0.233
4,AACTTGTA,0.0769
5,CCCAAGCG,-0.195
6,GCCCACCA,-0.177
7,CTTTGGTA,-0.00701
8,ATTAACAC,0.368
9,AGGAACGG,-0.00492
10,CATAACAG,-0.00784
11,CTTAAAGA,-0.102
12,GTCCACGA,-0.0232
13,AGCTAATC,0.098
14,TAGCCAGA,-0.138
15,ACGCTCGC,-0.207
16,AGAGTCTG,-0.244
17,GGAGCTAC,-0.236
18,GAGATCTA,-0.0293
19,CATATGAA,0.127
20,GTACTCGA,-0.174
21,TGTTACAA,0.213
22,AATTGTAA,0.188
23,AGCCCAGC,-0.2
24,ACAGGGAA,-0.0262
25,CATTCCTC,0.032

row,Sequence,PBM E-score
1,GACCCTTA,-0.132
2,AAGATTAA,0.289
3,GAAACCTA,-0.0567
4,AAGCTACA,0.00981
5,CATCACGC,-0.0824
6,ATGCTTAA,0.0681
7,ATGTTGCC,-0.0501
8,GCGTTCAC,-0.0913
9,CAAGCCTG,-0.108
10,ACTACAGT,0.139
11,AGCGGCCC,-0.381
12,AAATGCGT,0.073
13,TCATGTAA,0.0445
14,ATTTGTAC,0.228
15,CATAGACA,0.0148
16,GAGTCTGA,-0.19
17,CGAGAGAC,-0.188
18,CAATCCGC,0.0665
19,AATGCAAG,0.175
20,CGTCTCAC,-0.0438
21,CGTAGGTC,-0.141
22,TGGTAAAA,0.207
23,ACTAAGAT,0.206
24,AACATCAA,0.319
25,GCGAGTGA,-0.0502

row,Sequence,PBM E-score
1,ACTTCTCC,-0.0598
2,ATAGAGGG,-0.00016
3,ATACCTAT,0.102
4,CTGGTATA,-0.11
5,TATTGCGA,0.145
6,ACCGAGTA,0.0143
7,GGCTTATA,-0.124
8,TCCCGCCA,-0.0875
9,CTATTTAC,0.176
10,AATCACGC,0.0416
11,ATTGGGCG,-0.0632
12,GAGCTGAA,-0.0998
13,ATATATTG,0.14
14,TTCTCAAA,0.225
15,CCAGTTTC,0.0234
16,CACCCAGG,-0.289
17,TCCAAGAA,0.105
18,AAGCTAAG,-0.123
19,CCACGGAG,-0.062
20,CAAACTTA,0.191
21,ATTTTGGG,-0.0622
22,CACATACA,0.122
